Measurements published in patent US20210147571A1, “MONOCLONAL ANTIBODY TARGETING HUMAN TUMOR STEM CELLS AND USE THEREOF” (Suzhou Bojuhua Biomedical Technology Co. Ltd, priority 2017, published 2021).

Key:
[1] = molecular target: target antigen of Hetumomab (human); test: flow immunofluorescence; BEL7402 V13 parental cells
[2] = molecular target: target antigen of Hetumomab (human); test: flow immunofluorescence; BEL7402 V13 sphere cells
[3] = molecular target: target antigen of Hetumomab (human); test: flow immunofluorescence; BGC-823 sphere cells
[4] = molecular target: target antigen of Hetumomab (human); test: flow immunofluorescence; SNU-5 parental cells
[5] = molecular target: target antigen of Hetumomab (human); test: flow immunofluorescence; MHCC-97L parental cells
[6] = molecular target: target antigen of Hetumomab (human); test: flow immunofluorescence; BGC-823 parental cells
[7] = molecular target: target antigen of Hetumomab (human); test: flow immunofluorescence; SNU-5 sphere cells
[8] = molecular target: target antigen of Hetumomab (human); test: flow immunofluorescence; MHCC-97L sphere cells

Row | Binder | positive rate (percent positive cells) [1] [%] | positive rate (percent positive cells) [2] [%] | positive rate (percent positive cells) [3] [%] | positive rate (percent positive cells) [4] [%] | positive rate (percent positive cells) [5] [%] | positive rate (percent positive cells) [6] [%] | positive rate (percent positive cells) [7] [%] | positive rate (percent positive cells) [8] [%]
1 | humanized antibody Hetuzumab H5L6 (antibody, human IgG1, kappa) heavy: QVTLKESGPTLVKPTQTLTLTCTFSGFSLSTSGMGVSWIRQPPGKALEWLAHIYWDDDKRYNPSLKSRLTISKDTSKNQVVLTMTNMDPVDTATYYCARSFYYYAANSFAYWGQGTLVTVSS[human IgG1 constant region left out here] light: DIVMTQTPFSNPVTLGTSASISCRSSKSLLHSNGITYLYWFLQKPGQSPQLLIYQMSNLASGVPDRFSGSGSGTDFTLKISRVEAEDVGVYYCAQNLELYTFGQGTKVEIKRTVAAPSVFIFPPSDEQLKSGTASVVCLLNNFYPREAKVQWKVDNALQSGNSQESVTEQDSKDSTYSLSSTLTLSKADYEKHKVYACEVTHQGLSSPVTKSFNRGEC | 7.12 | 12 | 6.26 | 3.68 | 7.35 | 3.84 | 6.2 | 16.2
2 | humanized antibody Hetuzumab H5L11 (antibody, human IgG1, kappa) heavy: QVTLKESGPTLVKPTQTLTLTCTFSGFSLSTSGMGVSWIRQPPGKALEWLAHIYWDDDKRYNPSLKSRLTISKDTSKNQVVLTMTNMDPVDTATYYCARSFYYYAANSFAYWGQGTLVTVSS[human IgG1 constant region left out here] light: DIVMTQTPFSNPVTLGQPASISCRSSKSLLHSNGITYLYWFLQKPGQSPQLLIYQMSNLASGVPDRFSGSGSGTDFTLKISRVEAEDVGVYYCAQNLELYTFGQGTKVEIKRTVAAPSVFIFPPSDEQLKSGTASVVCLLNNFYPREAKVQWKVDNALQSGNSQESVTEQDSKDSTYSLSSTLTLSKADYEKHKVYACEVTHQGLSSPVTKSFNRGEC | 6.94 | 11.3 | 5.42 | 3.59 | 6.85 | 3.39 | 5.92 | 14.7
3 | humanized antibody Hetuzumab H5L12 (antibody, human IgG1, kappa) heavy: QVTLKESGPTLVKPTQTLTLTCTFSGFSLSTSGMGVSWIRQPPGKALEWLAHIYWDDDKRYNPSLKSRLTISKDTSKNQVVLTMTNMDPVDTATYYCARSFYYYAANSFAYWGQGTLVTVSS[human IgG1 constant region left out here] light: DIVMTQTPFSLPVTLGQPASISCRSSKSLLHSNGITYLYWFLQKPGQSPQLLIYQMSNLASGVPDRFSGSGSGTDFTLKISRVEAEDVGVYYCAQNLELYTFGQGTKVEIKRTVAAPSVFIFPPSDEQLKSGTASVVCLLNNFYPREAKVQWKVDNALQSGNSQESVTEQDSKDSTYSLSSTLTLSKADYEKHKVYACEVTHQGLSSPVTKSFNRGEC | 5.38 | 8.39 | 4.44 | 2.63 | 5.25 | 2.9 | 4.1 | 10.6
